B1: tRNA (parent)
chain: CUCUCGGUAGCCAAGUUGGUUUAAGGCGCAAGACUUUAAUUUAUCACUACGAAAUCUUGAGAUCGGGCGUUCGACUCGCCCCCGGGAGAUUUUUUCCUCGAGCAA

Variants at the floor of the assay are shown more often than the library holds them.

Variants of B1 are the subject of the data set. Nature of the data set: nonsense suppression (GFP-seq) (ratio to wild type); higher = more function; SUP4oc tRNA, yeast GFP reporter sort-seq. In a few lines:
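Sorted GFP/RFP bins of yeast were each Illumina-sequenced with a phred ≥30 cutoff; the cells held a genome-integrated ochre-suppressor tRNA variant from a library with ~3% random mutations, a galactose-driven GFP ochre reporter, and RFP. Culture was in raffinose/galactose medium containing 80 mg/L adenine. Nonsense suppression, termed GFPSEQ, is the median GFP/RFP of the bins weighted by each variant's estimated cell share per bin, relative to the unmutated parent tRNA, for variants reaching ≥100 reads and ≥30 cells.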
As to A33G U63G C83U, the nonsense suppression is no more than 0.026.

On to A23G U70C U71G, for which the nonsense suppression was no more than 0.026. With A30C U63A C81A, the nonsense suppression is no more than 0.026.

Regarding G6A C27G A54C U57C, the nonsense suppression is no more than 0.026.

Take C1U U70C U76C C82G: the nonsense suppression was no more than 0.026. The value for G26C G61A was no more than 0.026; that for A23U A87G was no more than 0.026; that for U21G C77U C82U was no more than 0.026.

As for G15C G18U, the nonsense suppression was no more than 0.026. To C12A C68U U70A G84A belongs no more than 0.026; to C27A A33C U63C, no more than 0.026; to C1G A13C G85U, no more than 0.026. The value for G10U G69C G85C A87G was no more than 0.026; that for U4C G25C G59A C80A was no more than 0.026. On to U8G U20G C82U, for which the nonsense suppression was no more than 0.026. As to U21C A24G A62C U70G, the nonsense suppression was no more than 0.026.

A54U C64A G78A: the nonsense suppression was no more than 0.026.

Regarding U21C U22A, the nonsense suppression came out at 1.14. The value for U2G G65A G67C C72U C75G was no more than 0.026. As for A31G U63A, the nonsense suppression stood at 0.684. The value for A13C U20G G59A G78A was no more than 0.026; that for C12G A60U G65U was no more than 0.026; that for U4G C77A was 0.0479. For U16A A31U C75U, the nonsense suppression was no more than 0.026.

Regarding U4A G59U A60C, the nonsense suppression is no more than 0.026. To G7U U70G belongs no more than 0.026; to U4A C11U G19A G85A, no more than 0.026; to C3U A23U G66A C81G, no more than 0.026. With U16C U20G G28A G86U, the nonsense suppression is no more than 0.026. As for A54U G61U, the nonsense suppression stood at 1.16. Regarding G61C C68U C79G, the nonsense suppression was no more than 0.026. The value for C1A U16G A54G C82A was no more than 0.026; that for A30U G59A G65A G84C was no more than 0.026; that for G18C U21G G32U was no more than 0.026. Turning to C3U A33C, the nonsense suppression was no more than 0.026. The value for G69A U71C G85U was no more than 0.026; that for U17A A24G U35C was no more than 0.026; that for C3U G78A was 0.0608. To C1U G32C U71C C72G G73C G86U belongs no more than 0.026; to U4C U16A U58G G67U U76A, no more than 0.026; to C5U C11U, no more than 0.026. In the case of A30G G59C A60C, the nonsense suppression is no more than 0.026. To C5G U55C U70C belongs no more than 0.026; to G10A U55C, no more than 0.026. C11G U55C: the nonsense suppression was no more than 0.026. To A9G G32A U58G G85U belongs no more than 0.026; to A23G G32U U76G, no more than 0.026; to U4A U8A, no more than 0.026. To G7U A13G G61A U76G G86C belongs no more than 0.026. The value for C34U G61C C80G C81U was no more than 0.026.

With A9C U20C A60C, the nonsense suppression is no more than 0.026. As to C1U U22C C83G, the nonsense suppression was no more than 0.026. To C12A G25C U57C U63C belongs no more than 0.026; to C11G C34U, no more than 0.026.

In the case of U16G C82G, the nonsense suppression was no more than 0.026. Take G6C U63C: the nonsense suppression was no more than 0.026. In the case of G18C G69C C82G, the nonsense suppression was no more than 0.026. To U4G G25U belongs no more than 0.026; to C3G G26U G65A U76C, no more than 0.026; to U21A A60G, 0.302. On to C3G U8A G25A, for which the nonsense suppression was no more than 0.026. The value for U16G U21C G78A was no more than 0.026. Turning to C1U G61A U70G G73C, the nonsense suppression was no more than 0.026. Take G59C G73A G88U: the nonsense suppression is no more than 0.026. To G26C U70A belongs no more than 0.026; to U8C A33G G59U C68A, no more than 0.026. To G18C G32C belongs no more than 0.026; to U16C A31U C34G, no more than 0.026; to C1G A14G U63G U70A C77A C80U G88C, no more than 0.026. As for A24C A30C C34A, the nonsense suppression was no more than 0.026.

In the case of G7A C27U A31U, the nonsense suppression is no more than 0.026. The value for A30U A31G was 0.25; that for U21G U76G was no more than 0.026; that for G6A G15A G32C was no more than 0.026.

As to A31U C68U G69C, the nonsense suppression is no more than 0.026. For A33C U57G C64G G88U, the nonsense suppression is no more than 0.026. To G25A G32A U57G U58G A62U G88C belongs no more than 0.026. Take C1A G26A C79U: the nonsense suppression is no more than 0.026.

Take U4C C68U U76C: the nonsense suppression was determined as 1.13.

Take A23C U63C: the nonsense suppression is no more than 0.026. To G10U C72G belongs no more than 0.026; to U16A U20G C27G, no more than 0.026; to G6A C11G G18C U57G G65U, no more than 0.026. The value for U4A G10U C83U was no more than 0.026; that for U4G U22G U57A was no more than 0.026. As for G28A G65A C68G, the nonsense suppression is no more than 0.026. The value for G6U A87U was no more than 0.026.

As for A33C U55G C77U, the nonsense suppression is no more than 0.026. Regarding U2A G84A A89C, the nonsense suppression is no more than 0.026.

On to C1G A60U U63G, for which the nonsense suppression was no more than 0.026. To C11G C12G U70C U71G A74U belongs no more than 0.026; to C56G U58G A60U C77G, no more than 0.026. U16A U21A A23C A54C U58G G61C G66A G78U: the nonsense suppression is no more than 0.026. The value for G6A A31C A60C C72A G86A was no more than 0.026; that for A9U A23U was no more than 0.026; that for U8A A31C A33G U63G C83A was no more than 0.026. On to G32A C80U, for which the nonsense suppression is no more than 0.026. Regarding U4G G18C A24G G61C C81A, the nonsense suppression amounted to 0.057. On to C29A G32C G86C, for which the nonsense suppression was no more than 0.026. Take C3G G15C: the nonsense suppression is no more than 0.026.

Regarding A13U G65C C82A, the nonsense suppression was no more than 0.026.

Regarding A9C C11U A60G, the nonsense suppression is no more than 0.026. Turning to U21C U35A C64G G66C C72G, the nonsense suppression was no more than 0.026. To U8A C79G belongs no more than 0.026. As for G7C A31G, the nonsense suppression was no more than 0.026.

With C5U U8A C11A A33G C83U, the nonsense suppression is no more than 0.026. Consider C11G A24G A33G C34A G85A, for which the nonsense suppression is no more than 0.026.

In the case of U2A C11A U17G C68U, the nonsense suppression is no more than 0.026. Turning to C11G G69C U71G C80A, the nonsense suppression was no more than 0.026. On to G7U U35A C64G G84C, for which the nonsense suppression was no more than 0.026. Turning to G25A U57G U63G, the nonsense suppression was no more than 0.026. With U2C A14C G19A G26A C27G U58A, the nonsense suppression was no more than 0.026. In the case of G18A A62G C75U, the nonsense suppression was no more than 0.026. To U17C U63G belongs 0.804.

Consider G7U C12U U58G U76C, for which the nonsense suppression was no more than 0.026.

For U2C G86U, the nonsense suppression is no more than 0.026. The value for G18C A30U A89U was no more than 0.026. With G25C G67A G69A, the nonsense suppression is no more than 0.026. Regarding U22G G25A A33G G78A, the nonsense suppression is no more than 0.026. Turning to C1U U57C U58A, the nonsense suppression was no more than 0.026. Take G6U A24C C64A: the nonsense suppression was no more than 0.026. The value for U22C G67A A89C was no more than 0.026. Take C1G C12U U76C G86A: the nonsense suppression is no more than 0.026. To C12U A30C C56G belongs no more than 0.026. For A13C U63A, the nonsense suppression came to 1.17. Take G6C G67A: the nonsense suppression was no more than 0.026. To U8C C29U belongs no more than 0.026; to G66A C81A, no more than 0.026; to U21C A60C C80U, no more than 0.026. The value for C27G A74C G86A was no more than 0.026; that for A24U G69C was no more than 0.026; that for G78A C80G C81U was no more than 0.026. The value for U35G C56G U76C was no more than 0.026; that for G10C U35A C82G was no more than 0.026; that for U22C C27U A31C C79U was no more than 0.026. As for A9C A14C U58G, the nonsense suppression is no more than 0.026. The value for C34U A54C G86C was no more than 0.026; that for C27G C34G G61C G73A was no more than 0.026.

In the case of U70A G78C G88U, the nonsense suppression is no more than 0.026. Take C1U G10C U55C U57G: the nonsense suppression is no more than 0.026. As for U63G U76C, the nonsense suppression was 0.0764. In the case of U63C G78C G86A, the nonsense suppression is no more than 0.026. To A23U G78U belongs 0.0382; to C3G U4A U20C A23C U71C G86A, no more than 0.026.

Turning to G28C C34G G59U, the nonsense suppression was no more than 0.026. Take G7C G73C: the nonsense suppression is no more than 0.026. A60C G78A: the nonsense suppression is no more than 0.026. The value for A30U C80A was no more than 0.026. The value for A9U C12U A30U C68U C81G was no more than 0.026; that for A13U C29A C82A was no more than 0.026; that for A14U U16G was no more than 0.026.

As to G18U G88C, the nonsense suppression is no more than 0.026. To G15C C68A G78C A87G belongs no more than 0.026; to C1G G66C U71A, no more than 0.026; to G32U C82U, no more than 0.026. In the case of U55G C64G G78U A87G, the nonsense suppression was no more than 0.026. The value for U71G G85C was no more than 0.026. U17G A33U G59A G88A: the nonsense suppression is no more than 0.026. With U21A, the nonsense suppression turned out to be 1.02. Take G6C G59U: the nonsense suppression was no more than 0.026.

In the case of U58A G66U, the nonsense suppression is no more than 0.026. To C3A A89G belongs no more than 0.026; to C27U C29A, no more than 0.026. The value for U55C G73C G84A G86A was no more than 0.026. Turning to C11U G69U U71C U76C, the nonsense suppression is no more than 0.026. For A9C A14C A23U U35G A54G, the nonsense suppression is no more than 0.026. With G10C C34G A60G U63C G85A, the nonsense suppression was no more than 0.026.

The values above are taken from the RNAGym collection of RNA variant scans (doi:10.1101/gad.245936.114).
